Source: the supplement of paper PMC8728848
This is one part of the list.

Tests used:
Assay in all cases: glycan array binding signal (z-score within array); higher = stronger binding
Conditions in all cases: glycan notation: IUPAC condensed, linker removed
[1] = target: Neu5Ac(a2-3)Gal(b1-3)GlcNAc6S
How it was run: (§1)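 Columns mapping to the same glycan were averaged after glycan names were converted to IUPAC-condensed notation. The data come from 3228 arrays in the Consortium for Functional Glycomics database, limited to those with an available protein sequence. Binding is reported as a within-array Z-score averaged across arrays of one protein sequence and across linkers.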

[2] = target: Neu5Ac(a2-3)Gal(b1-3)[Fuc(a1-4)]GlcNAc
How it was run: as §1

[3] = target: Neu5Ac(a2-3)Gal(b1-3)[Fuc(a1-4)]GlcNAc(b1-3)Gal(b1-3)[Fuc(a1-4)]GlcNAc
How it was run: as §1

[4] = target: Neu5Ac(a2-3)Gal(b1-3)[Fuc(a1-4)]GlcNAc(b1-3)Gal(b1-4)[Fuc(a1-3)]GlcNAc
How it was run: as §1

[5] = target: Neu5Ac(a2-3)Gal(b1-3)[GlcNAc(b1-6)]GalNAc
How it was run: as §1

[6] = target: Neu5Ac(a2-3)Gal(b1-3)[Neu5Ac(a2-6)]GalNAc
How it was run: as §1

[7] = target: Neu5Ac(a2-3)Gal(b1-3)[Neu5Ac(a2-6)]GlcNAc(b1-3)[Fuc(a1-3)[Gal(b1-4)]GlcNAc(b1-6)]Gal(b1-4)Glc
How it was run: as §1

[8] = target: Neu5Ac(a2-3)Gal(b1-3)]Neu5Ac(a2-3)Gal(b1-4)]GlcNAc
How it was run: as §1

Neu5Ac(a2-3)Gal(b1-4)Glc = target: Neu5Ac(a2-3)Gal(b1-4)Glc
How it was run: as §1

[9] = target: Neu5Ac(a2-3)Gal(b1-4)GlcNAc
How it was run: as §1

[10] = target: Neu5Ac(a2-3)Gal(b1-4)GlcNAc(b1-2)Man
How it was run: as §1

[11] = target: Neu5Ac(a2-3)Gal(b1-4)GlcNAc(b1-2)Man(a1-3)[GlcNAc(b1-4)][Neu5Ac(a2-3)Gal(b1-4)GlcNAc(b1-2)Man(a1-6)]Man(b1-4)GlcNAc(b1-4)GlcNAc
How it was run: as §1

[12] = target: Neu5Ac(a2-3)Gal(b1-4)GlcNAc(b1-2)Man(a1-3)[Neu5Ac(a2-3)Gal(b1-4)GlcNAc(b1-2)Man(a1-6)]Man(b1-4)GlcNAc(b1-4)GlcNAc
How it was run: as §1

[13] = target: Neu5Ac(a2-3)Gal(b1-4)GlcNAc(b1-2)Man(a1-3)[Neu5Ac(a2-3)Gal(b1-4)GlcNAc(b1-2)Man(a1-6)]Man(b1-4)GlcNAc(b1-4)[Fuc(a1-6)]GlcNAc
How it was run: as §1

[14] = target: Neu5Ac(a2-3)Gal(b1-4)GlcNAc(b1-2)Man(a1-3)[Neu5Ac(a2-6)Gal(b1-4)GlcNAc(b1-2)Man(a1-6)]Man(b1-4)GlcNAc(b1-4)GlcNAc
How it was run: as §1

[15] = target: Neu5Ac(a2-3)Gal(b1-4)GlcNAc(b1-2)[Neu5Ac(a2-3)Gal(b1-4)GlcNAc(b1-4)]Man(a1-3)[GlcNAc(b1-4)][Neu5Ac(a2-3)Gal(b1-4)GlcNAc(b1-2)[Neu5Ac(a2-3)Gal(b1-4)GlcNAc(b1-6)]Man(a1-6)]Man(b1-4)GlcNAc(b1-4)GlcNAc
How it was run: as §1

[16] = target: Neu5Ac(a2-3)Gal(b1-4)GlcNAc(b1-2)[Neu5Ac(a2-3)Gal(b1-4)GlcNAc(b1-4)]Man(a1-3)[GlcNAc(b1-4)][Neu5Ac(a2-3)Gal(b1-4)GlcNAc(b1-4)Man(a1-6)]Man(b1-4)GlcNAc(b1-4)GlcNAc
How it was run: as §1

[17] = target: Neu5Ac(a2-3)Gal(b1-4)GlcNAc(b1-2)[Neu5Ac(a2-3)Gal(b1-4)GlcNAc(b1-6)]Man(a1-6)[Neu5Ac(a2-3)Gal(b1-4)GlcNAc(b1-2)Man(a1-3)][GlcNAc(b1-4)]Man(b1-4)GlcNAc(b1-4)GlcNAc
How it was run: as §1

[18] = target: Neu5Ac(a2-3)Gal(b1-4)GlcNAc(b1-3)Gal
How it was run: as §1

[19] = target: Neu5Ac(a2-3)Gal(b1-4)GlcNAc(b1-3)Gal(b1-3)GlcNAc
How it was run: as §1

[20] = target: Neu5Ac(a2-3)Gal(b1-4)GlcNAc(b1-3)Gal(b1-4)GlcNAc
How it was run: as §1

[21] = target: Neu5Ac(a2-3)Gal(b1-4)GlcNAc(b1-3)Gal(b1-4)GlcNAc(b1-2)Man(a1-3)[Neu5Ac(a2-3)Gal(b1-4)GlcNAc(b1-3)Gal(b1-4)GlcNAc(b1-2)Man(a1-6)]Man(b1-4)GlcNAc(b1-4)GlcNAc
How it was run: as §1

[22] = target: Neu5Ac(a2-3)Gal(b1-4)GlcNAc(b1-3)Gal(b1-4)GlcNAc(b1-3)Gal(b1-4)GlcNAc
How it was run: as §1

[23] = target: Neu5Ac(a2-3)Gal(b1-4)GlcNAc(b1-3)Gal(b1-4)GlcNAc(b1-3)Gal(b1-4)GlcNAc(b1-2)Man(a1-3)[Neu5Ac(a2-3)Gal(b1-4)GlcNAc(b1-3)Gal(b1-4)GlcNAc(b1-3)Gal(b1-4)GlcNAc(b1-2)Man(a1-6)]GalNAc
How it was run: as §1

[24] = target: Neu5Ac(a2-3)Gal(b1-4)GlcNAc(b1-3)Gal(b1-4)GlcNAc(b1-3)GalNAc
How it was run: as §1

[25] = target: Neu5Ac(a2-3)Gal(b1-4)GlcNAc(b1-3)Gal(b1-4)GlcNAc(b1-3)[Neu5Ac(a2-3)Gal(b1-4)GlcNAc(b1-3)Gal(b1-4)GlcNAc(b1-6)]GalNAc
How it was run: as §1

[26] = target: Neu5Ac(a2-3)Gal(b1-4)GlcNAc(b1-3)Gal(b1-4)GlcNAc(b1-6)[Gal(b1-3)]GalNAc
How it was run: as §1

[27] = target: Neu5Ac(a2-3)Gal(b1-4)GlcNAc(b1-3)Gal(b1-4)[Fuc(a1-3)]GlcNAc
How it was run: as §1

[28] = target: Neu5Ac(a2-3)Gal(b1-4)GlcNAc(b1-3)GalNAc
How it was run: as §1

[29] = target: Neu5Ac(a2-3)Gal(b1-4)GlcNAc(b1-3)[Neu5Ac(a2-3)Gal(b1-4)GlcNAc(b1-6)]GalNAc
How it was run: as §1

[30] = target: Neu5Ac(a2-3)Gal(b1-4)GlcNAc(b1-6)GalNAc
How it was run: as §1

[31] = target: Neu5Ac(a2-3)Gal(b1-4)GlcNAc(b1-6)[Gal(b1-3)]GalNAc
How it was run: as §1

[32] = target: Neu5Ac(a2-3)Gal(b1-4)GlcNAc(b1-6)[Neu5Ac(a2-3)Gal(b1-3)]GalNAc
How it was run: as §1

[33] = target: Neu5Ac(a2-3)Gal(b1-4)GlcNAc6S
How it was run: as §1

[34] = target: Neu5Ac(a2-3)Gal(b1-4)[Fuc(a1-3)]GlcNAc
How it was run: as §1

[35] = target: Neu5Ac(a2-3)Gal(b1-4)[Fuc(a1-3)]GlcNAc(b1-2)Man
How it was run: as §1

[36] = target: Neu5Ac(a2-3)Gal(b1-4)[Fuc(a1-3)]GlcNAc(b1-3)Gal
How it was run: as §1

[37] = target: Neu5Ac(a2-3)Gal(b1-4)[Fuc(a1-3)]GlcNAc(b1-3)Gal(b1-4)GlcNAc
How it was run: as §1

[38] = target: Neu5Ac(a2-3)Gal(b1-4)[Fuc(a1-3)]GlcNAc(b1-3)Gal(b1-4)[Fuc(a1-3)]GlcNAc(b1-3)Gal(b1-4)[Fuc(a1-3)]GlcNAc
How it was run: as §1

[39] = target: Neu5Ac(a2-3)Gal(b1-4)[Fuc(a1-3)]GlcNAc(b1-3)GalNAc
How it was run: as §1

[40] = target: Neu5Ac(a2-3)Gal(b1-4)[Fuc(a1-3)]GlcNAc(b1-6)[Gal(b1-3)]GalNAc
How it was run: as §1

[41] = target: Neu5Ac(a2-3)Gal(b1-4)[Fuc(a1-3)]GlcNAc(b1-6)[Neu5Ac(a2-3)Gal(b1-3)]GalNAc
How it was run: as §1

[42] = target: Neu5Ac(a2-3)Gal(b1-4)[Fuc(a1-3)]GlcNAc6S
How it was run: as §1

[43] = target: Neu5Ac(a2-3)Gal6S(b1-4)GlcNAc
How it was run: as §1

[44] = target: Neu5Ac(a2-3)Gal6S(b1-4)[Fuc(a1-3)]GlcNAc
How it was run: as §1

B1: rCnSL-proA (Clitocybe nebularis) (protein)
chain: AAFFSLVVLLALLPFGIHASALPSTELTPRVNPNLPGPNDVFVGFRGTNNIVGAIYEKDGIKDTPLNNGADAEMGPGSYITDGLFTARIFASGSAGNNPGTTATVCKIYASGVQWRGAPKGYIPVAYFGNGPTAEQRRQTYLRTLGLPGTAIRFGNLNTNPGQGPTAPRQMVVPPGPLRSLLKASCFPAADTRLPQTLHYFEKRVDWNIITAADSQTWGH
- glycan array binding signal (z-score) [1]: 0.754
- glycan array binding signal (z-score) [2]: -0.549
- glycan array binding signal (z-score) [3]: -0.195
- glycan array binding signal (z-score) [4]: -0.238
- glycan array binding signal (z-score) [5]: -0.348
- glycan array binding signal (z-score) [6]: -0.43
- glycan array binding signal (z-score) [7]: 0.044
- glycan array binding signal (z-score) [8]: -0.475
- glycan array binding signal (z-score) (Neu5Ac(a2-3)Gal(b1-4)Glc): 0.341
- glycan array binding signal (z-score) [9]: -0.729
- glycan array binding signal (z-score) [10]: 0.283
- glycan array binding signal (z-score) [11]: -0.431
- glycan array binding signal (z-score) [12]: -0.33
- glycan array binding signal (z-score) [13]: 0.096
- glycan array binding signal (z-score) [14]: -0.713
- glycan array binding signal (z-score) [15]: 0.042
- glycan array binding signal (z-score) [16]: -0.116
- glycan array binding signal (z-score) [17]: -0.418
- glycan array binding signal (z-score) [18]: -0.931
- glycan array binding signal (z-score) [19]: -0.432
- glycan array binding signal (z-score) [20]: -0.022
- glycan array binding signal (z-score) [21]: 1.62
- glycan array binding signal (z-score) [22]: -0.54
- glycan array binding signal (z-score) [23]: 4.1
- glycan array binding signal (z-score) [24]: -0.397
- glycan array binding signal (z-score) [25]: 0.489
- glycan array binding signal (z-score) [26]: -0.373
- glycan array binding signal (z-score) [27]: -0.136
- glycan array binding signal (z-score) [28]: -0.264
- glycan array binding signal (z-score) [29]: -0.192
- glycan array binding signal (z-score) [30]: -0.108
- glycan array binding signal (z-score) [31]: 0.09
- glycan array binding signal (z-score) [32]: -0.211
- glycan array binding signal (z-score) [33]: -0.489
- glycan array binding signal (z-score) [34]: -0.536
- glycan array binding signal (z-score) [35]: -1.35
- glycan array binding signal (z-score) [36]: -0.442
- glycan array binding signal (z-score) [37]: 0.272
- glycan array binding signal (z-score) [38]: 0.144
- glycan array binding signal (z-score) [39]: 0.502
- glycan array binding signal (z-score) [40]: -0.39
- glycan array binding signal (z-score) [41]: 0.161
- glycan array binding signal (z-score) [42]: -0.444
- glycan array binding signal (z-score) [43]: -0.759
- glycan array binding signal (z-score) [44]: -0.672
